# Measured values published in ChEMBL document CHEMBL4888484, “Replenishing the malaria drug discovery pipeline: Screening and hit evaluation of the MMV Hit Generation Library 1 (HGL1) against asexual blood stage Plasmodium falciparum ,using a nano luciferase reporter read-out” (2022).
# Screen size: about 150,000 compounds; about 540 (0.36%) showed an effect of 50% or more. The list shows a part of the results.
# Test system: Plasmodium falciparum
# Experiment: Primary screen in NF54 nanoGlo assay, in single point, at 2uM, 72h; a lower Z score goes with more inhibition
# Type: functional, Erythrocyte
# Conditions: timepoint 72 hour
SMILES,% Inhibition,Z score
C1=C[C@@H](N2CCN(c3cc(N4CCOCC4)ncn3)CC2)CCC1,4%,-0.54
CC(NC(=O)N(C)C)C1Oc2ccccc2C1C (stereo not drawn),12%,-1.9
CN(Cc1cc(-c2ccccc2)on1)c1nc2c(c(=O)[nH]1)CCNCC2,-10%,1.55
O=C(C[C@@H]1CCNC[C@@H]1Cc1cc(CN2CCN(c3ccccc3)CC2)on1)N1CCC(Cc2ccccc2)CC1,10%,-1.49
COc1nn(C)cc1C(=O)N1CCC[C@H](COCc2ccccc2)C1,-3%,0.57
Cc1n[nH]c(C2CC2)c1C(=O)NCCN1CCCC[C@@H]1CO,0%,-0.05
CS(=O)(=O)N1C[C@H]2CCN(C(=O)Cc3c[nH]c4ccccc34)C[C@@]2(CO)C1,-5%,0.64
O=C(c1c(Cl)cccc1Cl)N(C(=O)c1c(Cl)cccc1Cl)c1nc2ccccc2s1,-21%,2.81
CN(CCNS(=O)(=O)c1cnn2c1OCCC2)c1ccccn1,0%,0.06
CCCc1ccc(C(=O)N2c3ccccc3C(Nc3ccccc3)[C@H](C)C2CC)cc1 (stereo partly drawn),6%,-0.76
Cc1ncsc1CN[C@@H](C)CC(C)(C)C#N,11%,-1.38
N#Cc1cc(F)ccc1CN1C(=O)[C@@H]2CCCN2C1=O,-14%,1.76
Cn1ccc(NC(=O)N2CCN(CCOc3ccc4c(c3)CCC4)CC2)n1,5%,-0.64
COC(=O)CN(C)c1ccc(C(=O)NC2CCOCC2)nn1,-3%,0.37
Fc1cccc2c(N3CCC3)ncnc12,3%,-0.63
C[C@](O)(CNC(=O)c1ccsn1)C(F)(F)F,-7%,1.2
c1nc(Oc2ccc3c(c2)CCC3)c2ccsc2n1,-8%,1.21
CN1C(=O)C(C)(C)c2cc(S(=O)(=O)N3CCC[C@H](CN4CCc5ccccc5C4)C3)ccc21,-13%,1.68
CCCN(CC(=O)Nc1nc(CC(=O)NCCN2CCCCC2)cs1)C(=O)c1ccc(Cl)c(Cl)c1,-12%,2.25
COc1cccc(-n2ccc3c(nnc4nc(C)nn43)c2=O)c1,-3%,0.35
Cc1ccc(CNC(=O)c2nc(-c3nc(-c4ccncc4)no3)cs2)cc1,-13%,1.33

SMILES,% Inhibition,Z score
O=C(Nc1ccc(S(=O)(=O)Nc2cccc3ccccc23)cc1)c1ccc(Br)cc1,-13%,1.76
O=C(N[C@@H](c1ccccc1)c1nc2ccccc2[nH]1)c1ccco1,-6%,0.77
Cc1cnc(C)c(N2CC(c3ccncc3)C2)n1,-10%,1.32
CC1(C)[C@H](Cc2cc(COc3ccccc3)on2)C[C@@H]1NC1CCOCC1,18%,-2.1
O=C(CC1CCCC1)N1CC(Nc2ccncn2)C1,-8%,0.95
Cc1cc(NC(=O)N2CC[C@H](CN3CCCC3)C2)ccc1Br,-5%,0.69
Cc1ncccc1C(=O)N1CC[C@@H](c2ccccc2)S(=O)(=O)CC1,-5%,0.85
O=C(CCc1nc(-c2ccsc2)no1)Nc1cccc(-c2nnco2)c1,-3%,0.47
CC1CN(S(=O)(=O)NCc2nc3ccccc3s2)CC(C)O1 (stereo not drawn),-12%,1.21
O=C1C[C@H](NS(=O)(=O)c2ccc3c(c2)OCCO3)CN1c1ccc2c(c1)OCCO2,10%,-1.4
COC(=O)NCC(=O)NCC1(Cc2ccccc2)CCC1,29%,-3.27
CC(NC(C)c1ccccc1Cl)C(=O)NC(C)(C)C (stereo not drawn),4%,-0.48
COC(=O)C1(CNC(=O)N2CC(C)C2c2ccccc2)CCOCC1 (stereo not drawn),-3%,0.42
COc1ccc(NC(=O)C2C3CCC4C(CCC32)C4(Cl)Cl)cc1 (stereo not drawn),-7%,0.77
CC(=O)c1ccc(-c2ccc(C(=O)NC3CCCCCC3)o2)cc1,-12%,1.03
CCCc1ccc(-c2nc(NC(=O)c3cc4c([nH]c3=O)CCCC4=O)sc2C)cc1,2%,-0.3
C[C@H]1Cc2ccccc2N1C(=O)Cn1cc(-c2ccn(C)n2)nn1,6%,-0.77
CC(=O)NC(C)(C)C[C@H](C)NC1(c2cccc(C)c2)CC1,-11%,1.81
O=C(O)CC[C@H]1CCCN(C(=O)c2ccc3c(c2)OCCCO3)C1,11%,-1.72
CC(=O)Nc1cccc(C(F)F)c1Cl,-3%,0.44
N#CC1(c2nc3ccccc3[nH]2)CC1c1ccccc1Cl (stereo not drawn),27%,-3.07

SMILES,% Inhibition,Z score
O=C(c1c[nH]c(=O)cn1)N1CCc2c(Cl)cccc21,17%,-2.01
COc1ccc(N[C@H]2CC(=O)N(c3ccc(C(C)=O)cc3)C2=O)cc1S(=O)(=O)N1CCOCC1,0%,0.04
O=C(NC[C@@H](CO)Cc1ccsc1)c1ccc(-n2cnnc2)nc1,-1%,0.26
O=C([C@H]1CC[C@H](Cn2cnnn2)CC1)N1CCO[C@H](c2ccccc2)C1,-10%,1.43
Cc1cc2cc(S(=O)(=O)N3CCCC3(C)C)ccc2[nH]c1=O,-11%,1.47
Cc1c(CNC(=O)c2ncoc2C(F)(F)F)cnn1C,9%,-1.27
CC(C)(C)CC(C)(C)Nc1c(-c2ccc(F)cc2)nc2c(OCc3ccccc3)cccn12,-2%,0.32
COc1cccc(C2c3[nH]c4ccccc4c3C[C@H]3C(=O)N(CCO)CC(=O)N23)c1 (stereo partly drawn),-1%,0.12
OCCn1c(-c2cccc3cccnc23)nc2ccccc21,-11%,2.03
COc1cc(C2N[C@H](C(=O)O)Cc3c2[nH]c2ccccc32)ccc1OCc1ccccc1 (stereo partly drawn),-3%,0.42
O=S(=O)(N1CCCC1)N1CCc2c(ncnc2N2CCOCC2)C1,-3%,0.45
COc1ccc(-c2cc(C(=O)N3CCCCCC3)[nH]n2)cc1,1%,-0.13
CC1CCCN(C(=O)Nc2ccncn2)C1C (stereo not drawn),2%,-0.25
Cn1c(=O)c2c(ncn2CCCC(=O)N2CCC(C(=O)N3CCCCCC3)CC2)n(C)c1=O,-5%,0.64
COc1cc(C(=O)N[C@@H]2COCC[C@@H]2OCC(=O)N(C)C)ccc1O,-3%,0.48
O=C(c1ccc(Cl)c(N2CCCC2=O)c1)N1CC=C(c2c[nH]c3ccccc23)CC1,1%,-0.17
CCNC(=O)N[C@H]1CC(=O)N(C2Cc3ccccc3C2)C1,5%,-0.61
c1cnc(-n2cnc3ccccc32)c(CNC2CCOCC2)c1,-11%,1.74
CCNc1ncc(CN(C)CCC2(O)CCCC2)cn1,2%,-0.3
O=C(NCc1cccs1)NC1CCCC1,29%,-3.95
CC(C)(C)S(=O)(=O)[C@H]1CCN(C(=O)CCc2ccc(Cl)c(C(F)(F)F)c2)C1,-6%,0.86

SMILES,% Inhibition,Z score
CC(C)CCNC(=O)c1[nH]cnc1C(=O)NCC1CC1,10%,-1.21
CC(C)N1CCN(C(=O)c2nccnc2NC(=O)c2ccccc2)CC1,1%,-0.15
CC(=O)NC(C)(C)C(=O)NCc1cc(C2CC2)on1,-2%,0.28
O=C(NCCN1CCOCC1)c1cncc(-c2ccccc2F)c1,-2%,0.28
C=CCn1cc2c3c(cccc31)[C@H](CC(C)C)N[C@H](C(=O)NCCCN1CCCC1=O)C2,-15%,1.98
COC(=O)C(C#N)C(C#N)c1ccccc1F (stereo not drawn),-9%,1
Cc1ccc([C@H](C)NC(=O)c2sccc2C2CC2)s1,-19%,1.94
CC(=O)Nc1cc(C(=O)N/C(=N/c2ccc(C(C)C)cc2)NCc2ccccn2)ccc1C,-29%,2.64
Cc1nc2ccccc2n1-c1nc(-c2ccco2)cc(C(F)(F)F)n1,-4%,0.68
COC(=O)c1n[nH]cc1-c1cc(-c2ccc(C)c(C)c2)nc(N)c1C#N,6%,-0.61
CCc1c(C)noc1NC(=O)c1cnc(C2CC2)nc1,-6%,0.96
COc1cccc(CNS(=O)(=O)c2ccc(C(=O)N3CCCC3)s2)c1,-14%,2.55
CCOC(=O)NCCC(=O)NCc1nc(C)n2c1CCCC2,-2%,0.24
Cc1ccc(CN2CCOC[C@@H](C3CCC3)C2)nc1,-2%,0.18
O=C(NCCc1ccccc1)c1coc(CN2CCN(c3ncccn3)CC2)n1,-1%,0.17
COc1ccc(CN(C)Cc2nc(C)no2)c(OC[C@@H](O)CN2CCCC2)c1,6%,-1.05
COCCN(C)c1ncc(F)c(NCC(F)F)n1,11%,-1.41
CCN(CC)C(=O)c1ccc(Br)cc1F,-6%,0.94
CCN(C(=O)COc1cccc(C)c1)[C@H](c1ccc(C)cc1)c1c[nH]c2ccccc12,6%,-0.77
CC(C)NC(=O)CNC(=O)Cc1cc(Cl)ccc1Cl,-1%,0.11
CC1C(C)S(=O)(=O)CCN1C(=O)c1cccc(C(F)(F)F)c1 (stereo not drawn),-11%,1.14
